About 340 (0.77%) of roughly 44,000 compounds were called active. About 5% were inconclusive and are not listed. Calls follow the shape of the dose curve; as a rule, active = well fitted inhibition curve with a large enough effect; inconclusive = small, poorly fitted or top-dose-only effect; inactive = flat fitted curve, though single readings scatter. Some of the results follow.
experiment: Acumen qHTS Assay for Inhibitors of the mTORC1 Signaling Pathway in MEF (Tsc2-/-, p53-/-) Cells: Sytravon; settings: phospho-rpS6 immunofluorescence/PI, 24 h; series mostly up to 38.3 µM; activity change, negative = inhibition: at the top concentration;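 also: plate controls were DMSO for no effect and rapamycin for full effect; nearly all actives have a fitted effect of over 50% in size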
How it was run: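 Readout is phospho-S6 Alexa 488 signal normalized to PI per well, reported as % active cells with thresholds set from rapamycin (7.5 nM) and DMSO controls. Cells: Tsc2-/-, p53-/- MEFs, 24 hrs compound at 37 C; PI cell number serves as viability.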

Activity change, negative = inhibition, inactive:
COc1ccc(C2C(C(=O)Nc3cccnc3)=C(C)Nc3nc(SCc4ccccc4)nn32)cc1 (stereo unspecified) -6.2%, CCOC(=O)CCCCN(Cc1ccccc1F)S(=O)(=O)c1ccc(F)c(C(=O)Nc2cc(Cl)cc(Cl)c2)c1 -8.85%, COc1cc(-c2noc(-c3ccc(NC4CCCC4)c([N+](=O)[O-])c3)n2)cc(OC)c1OC -0.128%, COc1ccc(-c2noc(-c3cc(-c4ccc(F)cc4)n[nH]3)n2)cc1 1.36%, O=C(NCc1ccc(F)cc1)c1nnc(Cc2cccc(F)c2)o1 -25.3%, CCOc1ccc(NC(=O)Nc2cc3c(cc2N2CCCCC2)n(C)c(=O)n3C)cc1 -18.7%, COc1ccc(C2=NC(C)(C)N(CC(=O)Nc3cc(OC)cc(OC)c3)C2=O)cc1 -10.5%, CN(c1ccc(F)cc1)S(=O)(=O)N1CCCC(C(=O)NCCc2ccccc2)C1 (stereo unspecified) -6.9%, Cc1ccc(-c2cc3nccc(-c4cc([N+](=O)[O-])ccc4O)n3n2)cc1 -10.1%, CCOc1ccc(S(=O)(=O)NCc2nc3cccnc3n2Cc2ccccc2OC)cc1 0.0474%, CCCOc1ccc(-c2nc3ccc(Br)cc3c(=O)o2)cc1 -15.4%, CCCCNC(=O)CSc1nc2n[nH]c(C)c2c(=N)n1-c1cccc(C)c1 1%, Cc1nc2ccc(S(=O)(=O)NC(CC(C)C)C(=O)NCc3ccc(Cl)cc3)cc2s1 (stereo unspecified) -0.889%, CC1=C(C(=O)N2CCN(c3ccc(Cl)cc3)CC2)C2(CCC(C)CC2)OC1=O (stereo unspecified) 1.73%, O=C(Cn1c(=O)n(Cc2ccccc2)c(=O)c2sc3ccccc3c21)Nc1ccc(F)cc1 -11.1%, CCCCN(CC)CCCNC(=O)c1cc2c(=O)oc3ccc(C)cc3c2s1 -2%, COc1ccc(-c2nc3sc(CCNC(=O)C(=O)Nc4ccc(C)c(C)c4)c(C)n3n2)cc1 0.966%, CCOC(=O)c1cc(-c2ccccc2)n(CC(=O)NCc2ccccc2)c1C -0.79%, Cc1ccc(C)c(Cn2c(=O)n(CCCC(=O)NCCc3ccc(Cl)cc3)c(=O)c3ccccc32)c1 -18.8%, O=C(COc1ccc(Cl)cc1)NCC(c1cccs1)S(=O)(=O)c1ccc(F)cc1 (stereo unspecified) 0.0758%, CC(C)c1ccc(NC(=O)c2cnc3sc(N4CCCC4)nn3c2=O)cc1 -15%, CCOC(=O)c1ccc(NC(=O)CC2C(=O)N(c3cccc(C)c3)C(=O)N2CCOC)cc1 (stereo unspecified) -0.14%, CCOc1ccc(-c2nonc2NC(=O)c2ccco2)cc1OCC 7.57%, CCOc1ccccc1CNC(=O)c1cc2c(=O)n(Cc3ccco3)ccc2nc1C -6.2%, COc1ccc(OC)c(-c2csc(-c3c(N)c(C(=O)c4ccc(Cl)cc4)n4ccccc34)n2)c1 -2.12%, CCOc1cc(CNC(=O)NC2COc3ccccc3C2)cc(OCC)c1OCC (stereo unspecified) 0%, Cc1ccc(OCC(=O)Nc2nnc(SCc3cc(=O)n4cccc(C)c4n3)s2)cc1 5.72%, CCc1ccccc1Nc1ncnc2c1cnn2-c1ccc(C)cc1C 0.936%, COc1ccc(C(=O)Nc2nnc(S(=O)(=O)N3CCN(c4ccc(F)cc4)CC3)s2)cc1 7.14%, COc1ccc(C(=O)Nc2nnc(S(=O)(=O)N(C)c3ccc(C)cc3)s2)cc1 11.9%, Cc1ccc(NC(=O)CSc2nc3c(sc4ccccc43)c(=O)n2CCCC(=O)NC2CCCC2)cc1C -0.43%, CC(C)COc1ccc(C(=O)Nc2nnc(S(=O)(=O)N(C)Cc3ccco3)s2)cc1 2.07%, COc1cccc(CNC(=O)c2cc3c(=O)n(Cc4cccnc4)ccc3nc2C)c1 -1.19%, CCc1cccc(NC(c2ccccc2)c2nnc(-c3ccccc3F)o2)c1 (stereo unspecified) -3.42%, CCOC(=O)c1c(C)[nH]c(C)c1S(=O)(=O)N1CCCC(C(=O)NCc2ccccc2Cl)C1 (stereo unspecified) 3.18%, COc1ccccc1CNC(=O)CN(c1ccccc1OC)S(C)(=O)=O 1.33%, CCC(C)NC(=O)Cn1c(=O)n(-c2ccc(OC)c(OC)c2)c(=O)c2ccccc21 (stereo unspecified) -3.43%, Cc1ccc2oc(-c3cc(NC(=O)CC(C)C)ccc3Cl)nc2c1 -4.54%, CCCc1cc(=O)oc2c(C)c3c(cc12)CN(CCc1ccc(Cl)cc1)CO3 2.19%, Cc1ccc2c(c1)Cc1c(nc(-c3ccc(F)cc3)nc1SCC(=O)N1CCCCC1)O2 2.62%, Cc1ccc(Nc2c(-c3cccnc3)nc3ccc(Cl)cn23)cc1 -4.42%, CCOC(=O)C1CCN(C(=O)c2c(C)nn(-c3ccc(F)cc3)c2-n2cccc2)CC1 -0.619%, COc1ccc2cc(CCNS(=O)(=O)c3ccc(C)cc3)c(=O)[nH]c2c1 -2.08%, Cc1cccc(OCC(=O)Nc2ccc3c(c2)nc(CN2CCCCC2)n3C)c1 -12.4%, CCCc1nnc(NC(=O)Cc2coc3c(C)c(C)ccc23)s1 -6.84%, Cc1ccc(Cl)cc1N1CCN(S(=O)(=O)c2ccc3c(c2)C(C(C)C)C(=O)N3)CC1 (stereo unspecified) -6.31%, Cc1ccc(-n2ncc3c(N4CCN(Cc5ccccc5)CC4)ncnc32)cc1Cl 8.93%, CCc1cc(=O)[nH]c(SCc2nc(-c3cccc(Cl)c3)no2)n1 -1.95%, CC(C)c1ccc(NC(=O)C2CCCN2S(=O)(=O)c2ccc3nc(-c4ccccc4)[nH]c3c2)cc1 (stereo unspecified) 0%, O=C(COCc1cc(-c2cccs2)on1)NCc1ccc(F)cc1 4.87%, O=C(Nc1ccc(Cl)cc1)c1ccc(-n2cnnc2)cc1 -0.517%, CCOCCCn1c(SCC(=O)Nc2ccc(CC)cc2)nc2ccccc2c1=O -1.61%, COc1ccc(C(=O)N(Cc2sccc2C)C2CCS(=O)(=O)C2)cc1 (stereo unspecified) 5.36%, CCc1ccc(C2C(C(=O)Nc3ccccc3OC)=C(C)Nc3nc(SCc4ccccc4)nn32)cc1 (stereo unspecified) 5%, CCOc1ccc(CNC(=O)CN2N=C(c3ccccc3)CCC2=O)cc1OC 5.22%, Cc1ccc(-n2ncc(C(=O)NCCN3CCN(C)CC3)c2C2CCN(C(=O)OC(C)(C)C)CC2)cc1 5.53%, Cc1nc(C)c(-c2ccc(SCC(=O)Nc3cccc(C)c3C)nn2)s1 -2.47%, Cc1ccc(CNC(=O)CSc2nc3ccsc3c(=O)n2-c2ccc(Br)cc2)cc1 -4.58%, Cn1c(C(=O)NCCc2ccccc2)cc2sc(Cl)cc21 0.107%, Cc1ccccc1C(=O)NNc1ncnc2c1cnn2-c1cccc(Cl)c1 3.79%, CC(=O)c1ccc(NC(=O)CC2Nc3cc(C)c(C)cc3NC2=O)cc1 (stereo unspecified) -19.8%, CCCc1ccc(NC(=O)C2CCCN(c3cnccn3)C2)cc1 (stereo unspecified) 1.78%, CCOc1cc(CNC(=O)Cn2ncn3c(cc4cc(F)ccc43)c2=O)cc(OCC)c1OCC -10.6%, CCc1ccc(NC(=O)C2CCN(S(=O)(=O)c3cccc(-c4noc(C)n4)c3)CC2)cc1 -6%, Cc1ccc(Cn2c(CNC(=O)c3ccc(Cl)c([N+](=O)[O-])c3)nc3cccnc32)cc1 -12.4%, CCOc1ccc(Nc2nc(C)c(NC(=O)c3cccc(F)c3)c(Nc3ccc(OCC)cc3)n2)cc1 -16%, Cc1noc(C)c1S(=O)(=O)N(CC(=O)NCCc1ccc(Cl)cc1)c1ccc(C(C)C)cc1 -0.781%, CCC1Oc2ccc(C)cc2N(CC(=O)N2CCN(c3ccccc3OC)CC2)C1=O (stereo unspecified) 3.55%, COc1ccc(-c2cc(C)no2)cc1S(=O)(=O)NCc1cccs1 -26.9%, CCc1cccc(NC(=O)CN2Cc3ccccc3C2=O)c1 -12%, CCOC(=O)c1c(S(=O)(=O)N2CCCC(C(=O)Nc3ccccn3)C2)c(C)n(C)c1C (stereo unspecified) -0.126%, COc1cc(CNC(=O)C2CCCCN2S(=O)(=O)c2ccc(F)cc2)cc(OC)c1OC (stereo unspecified) -0.599%, Cc1ccc(CNC(=O)C2CCN(S(=O)(=O)c3ccc(F)cc3)CC2)cc1 -9.99%, CC(=O)N1CCc2c(sc3c2c(=O)n(-c2ccc(C)cc2)c(=O)n3Cc2c(F)cccc2Cl)C1 -1.71%, COc1ccc(CNC(=O)c2cc(-c3ccc(OC)cc3)nc3n[nH]c(-c4cccc([N+](=O)[O-])c4)c23)cc1 0.611%, COC(=O)c1c(NC(=O)Cc2coc3cc(C)ccc23)sc2c1CCCC2 -16.2%, COc1ccccc1CNC(=O)c1cccn1-c1nnc(N2CCCCC2)s1 -7.02%, COc1cccc(C(=O)c2cn(CC(=O)NCc3ccccc3Cl)c3nc(C)ccc3c2=O)c1 -1.96%, CCCOc1cccc(C2c3c(oc4ccccc4c3=O)C(=O)N2c2nncs2)c1 (stereo unspecified) -4.99%, Cc1ccc(-c2nc(CS(=O)CC(=O)N3CCN(c4cccc(Cl)c4)CC3)c(C)o2)cc1 (stereo unspecified) -13.2%, Cc1ccc2cccc(NC(=O)COc3ccccc3Cl)c2n1 2.37%, Cc1ccc(C)c(Cn2c(CCCNC(=O)C3CCCCC3)nc3ccccc32)c1 -4.04%, Cc1nc(-c2cccc(NC(=O)Nc3ccccc3C(F)(F)F)c2)no1 -1.36%, O=C(CSc1nc2ccsc2c(=O)n1Cc1ccccc1Cl)NCc1ccc(F)cc1 -11.8%, CCc1ccc(-n2c(=O)c3sc4ccccc4c3n(CC(=O)N3CCCC3)c2=O)cc1 1.33%, CCc1ccc(NC(=O)CCCc2nnc3n(CC(C)C)c(=O)c4sccc4n23)cc1 2.56%, O=C(Nc1c2c(nn1-c1ccc(Cl)cc1)CS(=O)(=O)C2)c1cccc(F)c1 4.15%, COc1ccc(-c2nc(CNS(=O)(=O)c3ccc(Br)cc3)cs2)cc1 1.06%, COC(=O)c1ccc(C2c3c(-c4ccccc4O)n[nH]c3C(=O)N2Cc2ccncc2)cc1 (stereo unspecified) 1.49%, CC(C)c1nn2c(=O)cc(COC(=O)c3ccccc3NC(=O)COc3ccccc3)nc2s1 0%, CC(=O)Nc1ccc(S(=O)(=O)NCCc2cn3ccsc3n2)cc1 -18%, Cc1nnc(NC(=O)CSc2nccn2Cc2ccc(F)cc2)s1 0%, O=C(CSc1nc(-c2cccc(F)c2)[nH]c1-c1ccccc1)Nc1ccc2c(c1)OCCO2 1.68%, CCC(=O)N1CCc2cc(OC)c(OC)cc2C1COc1ccccc1OC (stereo unspecified) 0.759%, Cc1cccc(OCc2ccc(-c3nc(C#N)c(NCc4cccnc4)o3)o2)c1 -7.91%, COc1ccccc1NC(=O)CN1C(=O)C2(SCC(=O)N2c2ccc(F)c(F)c2)c2ccccc21 (stereo unspecified) -4.26%
